Source: paper PMC4336329 (PLoS ONE, 2015)
Hit rate of the full screen: of about 310,000 compounds, about 14,000 (4.5%) showed an effect of 50% or more. Effects have a minus sign here. The list shows a part of the results.

biological target: human ether-à-go-go-related gene (hERG) potassium channel (human, UniProt Q12809); test: primary screen, population patch clamp on CHO cells stably expressing hERG
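Further: peak tail current of the secondary pulse compared with the same well before compound.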

human ether-à-go-go-related gene (hERG) potassium channel, sequence (Q12809 whole entry, looked up): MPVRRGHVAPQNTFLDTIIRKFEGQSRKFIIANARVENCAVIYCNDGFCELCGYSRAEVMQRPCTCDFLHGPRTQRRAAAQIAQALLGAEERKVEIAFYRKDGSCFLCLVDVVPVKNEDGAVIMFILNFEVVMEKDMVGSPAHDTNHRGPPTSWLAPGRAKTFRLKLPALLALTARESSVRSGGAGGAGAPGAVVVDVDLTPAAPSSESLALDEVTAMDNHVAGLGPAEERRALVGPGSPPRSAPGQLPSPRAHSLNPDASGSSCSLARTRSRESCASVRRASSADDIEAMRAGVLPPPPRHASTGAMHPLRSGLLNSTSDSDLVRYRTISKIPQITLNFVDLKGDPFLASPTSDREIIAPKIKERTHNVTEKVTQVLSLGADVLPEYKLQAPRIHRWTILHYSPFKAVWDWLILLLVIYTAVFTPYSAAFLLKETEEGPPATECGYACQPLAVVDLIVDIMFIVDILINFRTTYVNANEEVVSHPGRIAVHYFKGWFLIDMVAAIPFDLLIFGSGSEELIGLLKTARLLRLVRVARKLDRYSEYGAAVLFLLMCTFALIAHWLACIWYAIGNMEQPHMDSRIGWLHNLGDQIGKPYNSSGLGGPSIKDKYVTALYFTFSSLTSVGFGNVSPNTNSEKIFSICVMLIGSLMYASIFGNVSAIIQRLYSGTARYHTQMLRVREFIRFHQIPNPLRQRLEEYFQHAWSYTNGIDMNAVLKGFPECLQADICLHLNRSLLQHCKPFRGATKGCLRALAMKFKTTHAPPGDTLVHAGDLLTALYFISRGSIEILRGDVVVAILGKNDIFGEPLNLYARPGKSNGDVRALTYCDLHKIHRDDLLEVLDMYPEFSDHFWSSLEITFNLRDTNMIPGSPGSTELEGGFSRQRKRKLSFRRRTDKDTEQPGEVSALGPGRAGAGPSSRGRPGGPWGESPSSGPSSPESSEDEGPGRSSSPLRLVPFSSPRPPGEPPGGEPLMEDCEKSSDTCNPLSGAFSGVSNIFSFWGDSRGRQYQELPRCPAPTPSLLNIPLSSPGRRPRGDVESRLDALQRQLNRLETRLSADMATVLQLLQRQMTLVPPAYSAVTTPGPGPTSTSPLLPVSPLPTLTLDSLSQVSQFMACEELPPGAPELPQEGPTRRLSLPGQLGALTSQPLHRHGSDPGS

| Structure (SMILES) | hERG current change (%, negative = inhibition) at 10uM [%] |
| --- | --- |
| OCC1(Cc2cccc(C(F)(F)F)c2)CCN(Cc2cc(F)cc(F)c2)CC1 | -43.4 |
| CCc1ccc(Nc2nnc(SCC(=O)c3c(N)n(C4CC4)c(=O)[nH]c3=O)s2)cc1 | -17.7 |
| CCn1c(SCC(N)=O)nnc1-c1ccc2c(c1)OCO2 | -0.333 |
| O=C1C2C3C=CC(C4CC34)C2C(=O)N1c1ccc2c(c1)OCO2 (centres unmarked) | 6.2 |
| CC1CC(C)CN(C(=O)c2ccc3ccccc3c2)C1 (centres unmarked) | -19.2 |
| O=S(=O)(Nc1ccc2c(c1)OCCO2)c1cccc(F)c1 | 5.23 |
| CC1CN(Cc2cc(=O)[nH]c(C(C)C)n2)CC(C)O1 (centres unmarked) | 13.4 |
| CCc1nc2ccccc2c(C(=O)OCC(=O)Nc2cccc(S(=O)(=O)NC3=NCCCCC3)c2)c1C | -3.2 |
| CC(C)=C1C2CCC1C(C(=O)Nc1sc(C)c(-c3ccc(C(C)C)cc3)c1C(N)=O)C2C(=O)O (centres unmarked) | -22.5 |
| Cc1c(NC(=O)c2cnn3c2NC(c2ccco2)CC3C(F)(F)F)c(=O)n(-c2ccccc2)n1C (centres unmarked) | 5.93 |
| CCOC(=O)NC(=O)/C(C#N)=N/Nc1ccc(F)cc1 | 2.9 |
| CC(O)c1cccc(NC2=CC(=O)CC(C)(C)C2)c1 (centres unmarked) | -9.38 |
| COc1cnc(-c2ccccc2)nc1Oc1ccccc1C | -4.2 |
| COc1ccc(OC)c(-c2nc(C(=O)NCC3CCCO3)cc3c2[nH]c2ccccc23)c1 (centres unmarked) | -59.1 |
| COc1ccc(NC(C)=O)cc1NC(=O)CSc1nnc(-c2ccncc2)n1C | 21.4 |
| Cc1oc(-c2ccc(Cl)cc2)nc1CS(=O)CC(=O)NCCCN1CC(C)CC(C)C1 (centres unmarked) | -65.5 |
| CNCC1(c2ccccc2)CCCC1.Cl | 15.1 |
| Nc1ccc(S(=O)(=O)N2CCOCCOCCOCCOCCOCC2)cc1 | 13.2 |
| Cc1cc(Cl)ccc1NS(=O)(=O)c1c(C)[nH]c(=O)[nH]c1=O | 9.93 |
| Cn1c(=O)c2cc(S(=O)(=O)NC(C(=O)Nc3cccnc3)c3ccccc3)ccc2n(C)c1=O (centres unmarked) | -0.723 |
| O=C(O)/C=C/c1cnc2ccccc2n1 | 16.6 |
| CC(C)(C)c1cc(C(=O)NN)n(Cc2ccc(Cl)cc2Cl)n1 | 12.3 |

| Structure (SMILES) | hERG current change (%, negative = inhibition) at 10uM [%] |
| --- | --- |
| O=C(O[C@@H]1OC2COC(=O)c3cc(O)c(O)c(O)c3-c3c(cc(O)c(O)c3O)C(=O)O[C@@H]([C@H]1O)[C@@H]2O)c1cc(O)c(O)c(O)c1 | 13.7 |
| CC(C)N1CCC2(CC1)N=C(c1ccc3c(c1)OCO3)CC(c1cc(Cl)ccc1O)N2 (centres unmarked) | -67.1 |
| c1csc(C2Nc3ccccc3-c3nc4ccccc4n32)c1 (centres unmarked) | -24 |
| COCCCNC(=O)c1ccccc1Sc1ccc(NC(C)=O)nc1 | 25.8 |
| Cc1ccc(-n2ncc3c2CCCC3NC(=O)CCc2cnn(C)c2)cc1C (centres unmarked) | 7.27 |
| Oc1cccc2nc3ccccc3nc12 | 2.6 |
| C=CCn1c(-c2ccncc2)n[nH]c1=S | 20.1 |
| COc1ccc(NC(=O)N(Cc2ccc(C)cc2)Cc2cccnc2)c(OC)c1 | -10.6 |
| Cc1ccc(C(=O)CC(=O)COc2ccc(Cl)cc2)cc1 | 7.09 |
| CC(C)Oc1ccc(Br)cc1/C=N\NC(N)=S | -3.05 |
| Cc1c(Cc2ccccc2)c(=O)oc2c(C)c(OCc3nn[nH]n3)ccc12 | 11.3 |
| CCn1c(=O)c(C(=O)CC#N)c(N)n(Cc2ccccc2)c1=O | -4.73 |
| O=[N+]([O-])c1ccc(S(=O)(=O)NCC(c2cccnc2)N2CCOCC2)cc1 (centres unmarked) | -22 |
| O=C(CCc1nnc(CCCCc2ccccc2)o1)NCCN1CCOC1=O | 14.6 |
| CC(C)c1nc(SCC(=O)c2c[nH]c3ccccc23)n[nH]1 | 2.6 |
| COc1ccccc1NC(=O)CC(NC1CCCCC1)C(=O)O (centres unmarked) | 11.3 |
| Cn1nc(C(F)(F)F)c2cc(NC(=O)OCC(C)(C)C)sc21 | -0.844 |
| COc1ccc(C(=O)NCc2nnc(SCC(=O)NCc3ccco3)o2)cc1 | 11.3 |
| COc1ccc(C2Nc3ccccc3C(=O)N2c2ccccc2)cc1CN1CCOCC1 (centres unmarked) | -26.7 |
| Cc1cc(C)c2c(=O)[nH]c(SCC(=O)Nc3cccc(S(=O)(=O)N(C)C)c3)nc2n1 | -42.1 |
| Cc1cc(Cl)ccc1OCC(=O)OCC(=O)N1CCC(C(N)=O)CC1 | -8.07 |
| Cc1ccc2cc(C#N)c(SCc3nnc(-c4ccccc4[N+](=O)[O-])o3)nc2c1 | 4.55 |
